# Source: publication PMC4336329 (PLoS ONE, 2015)
# The campaign covered roughly 310,000 compounds. About 2,200 (0.71%) showed an effect of 50% or more. The effect is printed as a negative number. The list shows a part of the results.
# Target: human ether-à-go-go-related gene (hERG) potassium channel (human, UniProt Q12809)
# Experiment: primary screen, population patch clamp on CHO cells stably expressing hERG
# Sequence of human ether-à-go-go-related gene (hERG) potassium channel (Q12809 whole entry, looked up): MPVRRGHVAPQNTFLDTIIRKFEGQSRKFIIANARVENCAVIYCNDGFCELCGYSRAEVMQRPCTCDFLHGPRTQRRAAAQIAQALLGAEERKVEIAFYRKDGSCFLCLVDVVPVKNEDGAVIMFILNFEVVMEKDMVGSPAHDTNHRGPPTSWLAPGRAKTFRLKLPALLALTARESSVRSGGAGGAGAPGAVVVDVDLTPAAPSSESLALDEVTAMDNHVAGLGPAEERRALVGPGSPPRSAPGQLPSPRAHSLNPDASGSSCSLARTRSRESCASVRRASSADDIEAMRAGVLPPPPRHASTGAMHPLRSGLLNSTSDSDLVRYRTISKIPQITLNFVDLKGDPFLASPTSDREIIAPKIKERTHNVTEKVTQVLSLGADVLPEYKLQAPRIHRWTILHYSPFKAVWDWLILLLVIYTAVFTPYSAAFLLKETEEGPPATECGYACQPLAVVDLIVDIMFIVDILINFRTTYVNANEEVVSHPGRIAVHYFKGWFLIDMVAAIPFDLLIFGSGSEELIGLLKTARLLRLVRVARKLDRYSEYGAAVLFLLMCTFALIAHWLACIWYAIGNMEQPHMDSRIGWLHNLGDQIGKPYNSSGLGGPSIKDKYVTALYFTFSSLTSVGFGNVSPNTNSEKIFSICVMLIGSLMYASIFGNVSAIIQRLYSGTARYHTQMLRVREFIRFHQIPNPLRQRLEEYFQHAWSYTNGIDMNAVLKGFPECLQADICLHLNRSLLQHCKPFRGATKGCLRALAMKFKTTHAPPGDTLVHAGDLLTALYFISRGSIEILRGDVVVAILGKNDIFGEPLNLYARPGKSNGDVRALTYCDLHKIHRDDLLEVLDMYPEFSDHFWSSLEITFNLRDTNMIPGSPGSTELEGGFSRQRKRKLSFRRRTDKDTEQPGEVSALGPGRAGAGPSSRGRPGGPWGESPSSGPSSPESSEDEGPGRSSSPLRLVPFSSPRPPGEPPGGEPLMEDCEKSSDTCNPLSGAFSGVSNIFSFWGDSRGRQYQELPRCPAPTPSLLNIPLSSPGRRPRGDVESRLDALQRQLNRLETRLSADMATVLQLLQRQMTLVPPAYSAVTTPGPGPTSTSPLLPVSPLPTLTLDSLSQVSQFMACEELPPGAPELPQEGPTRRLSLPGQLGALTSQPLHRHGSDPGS
row,SMILES,"hERG current change (%, negative = inhibition) at 1uM [%]"
1,COc1ccccc1C(=O)Nn1c(C)nc2ccccc2c1=O,14.8
2,O=C(COc1ccc(Cl)cc1Cl)NC1CCSC1=O (stereo not drawn),12.5
3,O=C(c1ccco1)N1CCN(C(c2ccc(Cl)cc2)c2nnnn2CC2CCCO2)CC1 (stereo not drawn),-0.951
4,CCOC(=O)c1cnn(-c2sc(C(=O)OCC)c(C)c2C(=O)OCC)c1N,16.6
5,CCOCCOCCC(C(=O)OCC)P(=O)(c1ccccc1)c1ccccc1 (stereo not drawn),6.44
6,COCCn1c(Cc2ccccc2)nnc1SCC(=O)N1CCOCC1,11
7,CCN(CC)C(=O)CNc1ccc(C(F)(F)F)cc1[N+](=O)[O-],5.65
8,COc1ccccc1CNC(=O)CCCc1nnc2n(C)c(=O)c3sccc3n12,10.1
9,CCOc1cc(C(c2c(C)[nH][nH]c2=O)c2c(C)[nH][nH]c2=O)cc(Cl)c1O,13.9
10,Cc1nc(SCC(N)=O)[nH]c(=O)c1CCC(C)C,3.67
11,CC(=O)N1CCOc2ccc(S(=O)(=O)NCC3CCC(C(=O)Nc4ccc(C)cn4)CC3)cc21 (stereo not drawn),3.17
12,NS(=O)(=O)c1ccc(CCNC(=O)c2cc3ccccc3oc2=O)cc1,11.2
13,CCC(=O)Nc1c(C#N)c2nc3ccccc3nc2n1C1CCCCC1,16.5
14,CCOC(=O)C1CCN(S(=O)(=O)c2c(Cl)ccc3nonc23)CC1,10.2
15,O=C(CNC(=O)c1ccco1)NC1CCCCCC1,4.18
16,CCn1c(SCC(=O)N/N=C/c2ccc(C)o2)nnc1-c1ccccc1,1.67
17,CCOC(=O)C(C)(C)N(Cc1ccccc1C)S(=O)(=O)c1ccc(Cl)c([N+](=O)[O-])c1,6.43
18,Cc1ccc(NC(=O)Cn2c(O)c(N=NC(=O)c3cc([N+](=O)[O-])ccc3O)c3ccccc32)cc1,5.03
19,COc1cccc(C(=O)Nc2c3c(nn2-c2ccc(Cl)cc2)CS(=O)(=O)C3)c1OC,-0.486
20,N#Cc1cccnc1N1CCN(C(=O)c2cccs2)CC1,7.29
21,O=C(CCCNC(=O)c1ccc(Cl)cc1)Nc1ccccc1C(F)(F)F,0.224
22,COC(=O)c1nc(NC(=O)c2ccc(Cl)cc2)n[nH]1,14.1

row,SMILES,"hERG current change (%, negative = inhibition) at 1uM [%]"
1,COc1ccc(-c2cc(C(F)(F)F)nc(N3CCOCC3)n2)cc1,19.9
2,Cc1c(S(=O)(=O)Nc2ccc(Oc3ccccc3)cc2)c(=O)n(C)c(=O)n1C,4.73
3,CC(=O)Nc1ccc(NC(=O)C2CC(=O)Nc3ncnn32)cc1 (stereo not drawn),7.74
4,O=C(NNC(=S)NC(=O)c1ccccc1[N+](=O)[O-])c1ccc(Cl)cc1Cl,9.26
5,COc1ccc(NC(c2ccccc2)c2ccncc2)cc1.Cl (stereo not drawn),7.55
6,COc1cc(NC(=O)CSCc2ccc(Cl)cc2)c(C(=O)O)cc1OC,13.7
7,c1ccc2c(c1)[nH]c1ccccc12,-10.3
8,CNC(=S)N(Cc1cccs1)Cc1cc2cc(OC)ccc2[nH]c1=O,0.76
9,CCN(CC)S(=O)(=O)c1ccc(C)c(NS(=O)(=O)c2cc(/C=C/C(=O)O)cc(OC)c2OC)c1,6.78
10,CC1CCCC(NC(=O)CNC(=S)N(Cc2ccccc2)Cc2cccs2)C1C (stereo not drawn),1.61
11,CC(=O)c1cccc(NC(=O)C2C3C=CC(C4CC34)C2C(=O)O)c1 (stereo not drawn),-1.56
12,N#CC1=C(N)SC2(CCCCC2)SC1c1ccccc1 (stereo not drawn),8.41
13,O=C(/C=C/c1ccccc1)N1CCN(Cc2nc3ccccc3c(=O)[nH]2)CC1,-37.4
14,CNc1nc2ccccc2n(C)c1=O,4.93
15,O=C1CN(C(=O)CSc2nncs2)c2ccccc2N1,12.4
16,Cn1c(/C=C/c2ccc([N+](=O)[O-])o2)nc2ccccc2c1=O,-5.47
17,CCOc1ccc(NC(=O)CSc2nc(=O)n(CCN3CCOCC3)c3c2CCCC3)cc1,0.794
18,CCOC(=O)N1CCN(C(=O)CSc2nnc(-c3cccc(OC)c3)o2)CC1,3.14
19,COC(=O)N/N=C/c1cc(N=Nc2ccccc2Cl)ccc1O,7.06
20,Cc1cc(C(F)(F)F)n2ncc(-c3ccccc3)c2n1,13.1
21,COc1ccc2c(c1)OC/C(=C/c1cccs1)C2=O,5.83
22,O=C(CCn1c(=O)c2ccccc2n(CC(=O)NC2CCCC2)c1=O)NCc1ccco1,13.1

row,SMILES,"hERG current change (%, negative = inhibition) at 1uM [%]"
1,COc1ccc(OC)c(S(=O)(=O)N2CCCC(C)C2)c1 (stereo not drawn),-18.4
2,COC(=O)C1C(O)=C(C=NC2CCCCC2)C(=O)CC1(C)C (stereo not drawn),6.42
3,Cc1ccc(NC(=S)NC(=O)c2cncc(Br)c2)c(C)c1,8.34
4,Cc1cccc(Nc2nc(N)nc(CN3CCC(C(N)=O)CC3)n2)c1C,7.21
5,CSc1ccc(CCNC(=O)CCc2nnc3ccc(N4CCCCC4)nn23)cc1,-10.4
6,[O-]C1=N/[N+](=C/c2ccc(Cl)cc2)CC1,2.23
7,C=CCn1c(=O)c2c(nc3n2CC(C)CN3CCc2ccccc2)n(C)c1=O (stereo not drawn),-22.1
8,CCOC(=O)N1CCN(S(=O)(=O)N2CCCC(C(=O)NCCc3ccc(OC)c(OC)c3)C2)CC1 (stereo not drawn),10.8
9,CCn1nc(NC(=O)c2cccnc2)c2cc3ccccc3nc21,15.3
10,Cc1ccc(-n2c(SCC(=O)c3c(N)n(C)c(=O)n(C)c3=O)nc3sc4c(c3c2=O)CCCC4)c(C)c1,13
11,O=c1/c(=C\c2ccc(O)cc2)sc2nc(-c3ccccc3)c(-c3ccccc3)n12,14.4
12,CN(C)/C=C1\C(=O)N(c2ccc(Cl)c(Cl)c2)CS1(=O)=O,10.8
13,CS(=O)(=O)c1ccc2nc(NC(=O)CN3C(=O)C4CC=CCC4C3=O)sc2c1 (stereo not drawn),4.39
14,COc1cccc(/C=N/n2c(SC)nnc2-c2ccccc2)c1OC,-15.2
15,C1CCC(Nc2nc3nonc3nc2N2CCSCC2)C1,6.28
16,c1ccc(NCn2cncn2)nc1,5.15
17,CC(C)(C)n1nc2c(c1NC(=O)c1ccccc1F)CS(=O)C2 (stereo not drawn),17
18,COC(=O)C[C@H]1c2cc(C(F)(F)F)ccc2S(=O)(=O)N1c1ccc(N(C)C)cc1,-14.3
19,O=C(CCC(=O)N1CCN(c2ccccc2)CC1)Nc1nnc(C2CCCCC2)s1,11.2
20,Cn1nnnc1SCc1cccc(CSc2nnnn2C)n1,6.12
21,C=CCn1c(CNc2ccccc2)nnc1SCC(=O)N/N=C/c1ccc(O)cc1O,6.52
22,CCOc1cc(C(=O)N2CCN(C/C=C/c3ccccc3)CC2)cc(OCC)c1OCC,-3.18

row,SMILES,"hERG current change (%, negative = inhibition) at 1uM [%]"
1,COc1cc(C(=O)OCC(=O)Nc2ccccc2C(=O)NC2CC2)c([N+](=O)[O-])cc1OC,5.33
2,COc1ccccc1OCCn1c(CO)nc2ccccc21,10.9
3,Cc1ccc(NC(=O)COc2cccc(-n3cnnn3)c2)cc1S(=O)(=O)N1CCOCC1,7.14
4,CCN1CCN(C(c2cccs2)C(C)NC(=O)c2cccnc2)CC1 (stereo not drawn),14.4
5,O=C(CN1C(=O)COc2ccccc21)NCCN1CCc2ccccc2C1,8.74
6,COCCNC(=O)CCCCCn1c(=S)[nH]c2ccccc2c1=O,8.16
7,O=C(OCc1c(Cl)cccc1Cl)c1cccnc1,5.84
8,O=C(COC(=O)c1ccc2c(c1)C(=O)N(CCc1ccccc1)C2=O)Nc1ccc(OC(F)F)cc1,12.1
9,CC(C)(C)c1ccc(C(=O)C2CCCN(C(=O)CN3CCCC3=O)C2)cc1 (stereo not drawn),3.61
10,COc1ccc(OC)c(NC(=O)c2cc(S(=O)(=O)NCc3ccco3)ccc2F)c1,13.1
11,O=C(CSc1nnc2ccccn12)NCc1ccc2c(c1)OCO2,10.2
12,COc1ccc(NC(=O)/C(C#N)=C\c2ccc(-c3cccc(C(=O)O)c3C)o2)cc1,1.64
13,Cc1n[nH]c(=O)c2c(NC(=O)COC(=O)c3ncc(Cl)c(Cl)c3Cl)oc(C)c12,12.8
14,O=C(CN1CCN(c2ccc(F)cc2)CC1)N(C1CCCC1)C1CCS(=O)(=O)C1 (stereo not drawn),-9.75
15,Cc1cc(C)n(C(C)CNC(=O)c2ccc3c(c2)OCO3)n1 (stereo not drawn),16.5
16,C#Cc1ccc(CN2CCCC(C(=O)Nc3ccccc3Oc3cccnc3)C2)cc1 (stereo not drawn),-7.65
17,O=C(N[C@@H](c1ccccc1)[C@@H]1C[C@H]1C(=O)NCc1ccccn1)OCc1ccccc1,1.59
18,CCOc1ccc2nc(C)cc(Nc3cccc([N+](=O)[O-])c3)c2c1.Cl,1.88
19,COc1ccc(NC(=S)N(CCc2c(C)[nH]c3ccc(C)cc23)Cc2ccco2)cc1,6.5
20,CCN(CCNC(=O)CN(C)S(=O)(=O)c1cccc2nsnc12)c1ccccc1,-9.91
21,CCOC(=O)c1c(C)[nH]c(C(=O)C(C)Cl)c1C (stereo not drawn),7.99
